Source: PubChem BioAssay AID686979 (National Center for Advancing Translational Sciences (NCATS), 2013)
Out of some 420,000 compounds screened, about 50,000 (12%) were called active. Inconclusive results, whose numbers are uncertain, are shown with a selection of clear calls. Calls come from the whole dose curve; as a rule, active = well fitted inhibition curve with a large enough effect; inconclusive = small, poorly fitted or top-dose-only effect; inactive = flat fitted curve, though single readings scatter. Potencies of inconclusive entries are left out as doubtful fits.

assay: qHTS for Inhibitors of human tyrosyl-DNA phosphodiesterase 1 (TDP1): qHTS in cells in presence of CPT; conditions: chicken DT40 Tdp1-/-;hTDP1 cells + 20 nM CPT, ATP luminescence, 48 h; activity change, negative = growth inhibition: at 46.2 µM (top of the series) unless noted; note: nearly all actives have a fitted effect of over 55% in size
Summary of the method: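 Chicken DT40 Tdp1-/- cells complemented with human TDP1, 400 cells/well, exposed to compounds plus 20 nM camptothecin for at least 48 h at 37 C; viability read as ATP content by CellTiter-Glo luminescence.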
% is set by controls: 0 for no effect and ±100 for the full control effect; potency is the fitted concentration of half-maximal effect; tags give direction and shape of the fitted curve.

Compound	Potency	activity change, negative = growth inhibition
CN1CCN(CCC(=O)N2c3ccccc3Sc3ccc(Cl)cc32)CC1	inconclusive [inhibitor, single point]	
CSCc1cc(N2CCOCC2)nc(SCc2ccc(Cl)cc2Cl)n1	inconclusive [inhibitor, single point]	
CCCc1nc2ccc(C(=O)OC)cn2c1Cc1cccc(F)c1	inconclusive [inhibitor, single point]	
CCOC(=O)c1c(OCC)[nH]c2c1cc(O)c1ccccc12	active: 16.4 µM	
COc1ccc(NC(=O)C2Cc3ccccc3N2C(=O)c2ccccc2)c(OC)c1 (stereo not given)	inactive	
COc1ccccc1N1CCN(CCN(C(=O)c2ccc(F)cc2)c2ccccn2)CC1	inconclusive [inhibitor, partial curve]	
O=C(NCCCCc1ccccc1)c1cccc(NC(=O)C2CC2)c1	inconclusive [inhibitor, single point]	
O=C(c1ccc(F)cc1)N1CCCC(c2nc(-c3ccncc3)no2)C1 (stereo not given)	inconclusive [inhibitor, single point]	
COc1ccc(N(Cc2cccs2)C(=O)COc2cccc(Cl)c2)cc1	inconclusive [inhibitor, single point]	
Cc1ccc(Cl)cc1NC(=O)c1oc2c(c1C)-c1[nH]ncc1CC2	inconclusive [inhibitor, single point]	
CCc1ccc(OCC(=O)NNC(=O)c2cnccn2)c(Br)c1	active: 5.8 µM	
CC/C(=N\NC(=O)c1ccccc1Cl)c1ccc(Br)s1	inconclusive [inhibitor, single point]	
CCOC(=O)c1[nH]cnc1N=Nc1c(O)ccc2ccccc12	active: 5.17 µM	
Cc1ccc2oc(C(=O)N3CCC(C(N)=O)(N4CCCCC4)CC3)c(C)c2c1	inconclusive [inhibitor, single point]	
O=C1CC(c2cccc([N+](=O)[O-])c2)c2c(ccc3ccccc23)N1 (stereo not given)	active: 13 µM	
CCCN1C(=O)C(O)(C2COC(C)(C)CC2=O)c2ccccc21 (stereo not given)	active: 3.66 µM	
CC1=C(C(=O)OC2CCCCCC2)C(c2c(F)cccc2Cl)CC(=O)N1 (stereo not given)	inconclusive [inhibitor, single point]	
CCOC(=O)c1c(Nc2ccc(C)cc2)nnc(-c2ccccc2)c1-c1ccccc1	inconclusive [inhibitor, single point]	
COC(=O)c1ccccc1Oc1ccc(NC(=O)C(C)(C)CCl)cc1	inactive	
CC(C)C[C@@H](CO)N1CCN(CCCc2ccccc2)CCC1=O		inconclusive: -32.1% [inhibitor]
